# According to the supplement of paper PMC3334620:
# Over roughly 33,000 sequences, “E-score (-0.5 to 0.5)” has its median near -0.021; the highest 2% begin near 0.32. The list shows a part of the results.
# Target: T1, Zap1 (UniProt P47043)
# T1 sequence: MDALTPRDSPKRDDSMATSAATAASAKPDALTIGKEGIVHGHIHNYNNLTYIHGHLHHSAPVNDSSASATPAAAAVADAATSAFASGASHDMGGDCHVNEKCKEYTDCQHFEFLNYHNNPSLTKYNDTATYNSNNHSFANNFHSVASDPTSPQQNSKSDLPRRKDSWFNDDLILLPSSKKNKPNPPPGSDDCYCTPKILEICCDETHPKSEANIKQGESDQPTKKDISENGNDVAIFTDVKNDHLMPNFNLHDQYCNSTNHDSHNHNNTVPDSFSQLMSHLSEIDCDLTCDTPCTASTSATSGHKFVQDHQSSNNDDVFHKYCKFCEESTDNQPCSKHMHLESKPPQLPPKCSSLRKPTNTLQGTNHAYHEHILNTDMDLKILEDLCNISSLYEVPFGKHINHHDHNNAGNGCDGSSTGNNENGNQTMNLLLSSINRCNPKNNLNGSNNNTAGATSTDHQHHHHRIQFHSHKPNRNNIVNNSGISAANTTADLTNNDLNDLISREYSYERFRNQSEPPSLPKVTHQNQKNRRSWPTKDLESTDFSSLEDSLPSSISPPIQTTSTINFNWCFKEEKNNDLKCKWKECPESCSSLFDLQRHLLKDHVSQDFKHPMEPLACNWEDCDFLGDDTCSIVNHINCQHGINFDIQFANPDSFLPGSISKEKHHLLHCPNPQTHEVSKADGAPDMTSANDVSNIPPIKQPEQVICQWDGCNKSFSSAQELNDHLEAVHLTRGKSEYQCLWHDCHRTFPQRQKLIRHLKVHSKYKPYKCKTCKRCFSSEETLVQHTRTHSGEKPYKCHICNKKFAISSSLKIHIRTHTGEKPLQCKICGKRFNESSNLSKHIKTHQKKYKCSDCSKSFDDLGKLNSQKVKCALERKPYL
# Assay: PBM E-score (8-mer binding enrichment) (E-score (-0.5 to 0.5)); higher = stronger / more preferred TF binding; most listed sequences are background and not binding sites
# Settings: protein concentration: 200 nM; construct: GST-full length
# Outline: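 Detection of bound protein used fluorescent anti-GST, with scans normalised by masliner. The proteins were GST-tagged yeast transcription factors applied at about 100-200 nM to universal all-10-mer Agilent arrays made double-stranded by primer extension. Each ungapped eight-base word, pooled with its reverse complement, was scored with an E-score from the Universal PBM Analysis Suite.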
row,Sequence,PBM E-score
1,GCGTACAC,-0.046
2,ATCGGATG,-0.116
3,AACGTAAG,-0.194
4,CTTGCAGC,-0.0954
5,GATTCTGA,0.0221
6,CAATACTG,0.0373
7,ATCTTTAC,0.0364
8,GCCCGAAC,-0.142
9,ACTCCGTC,-0.104
10,AGCTAGCC,-0.182
11,CCTCAACC,0.00507
12,AAGTGGGA,-0.0615
13,CTCTCGGC,-0.00869
14,GGAAGGAA,-0.202
15,AGTCCCTC,-0.299
16,ACTTGTGA,0.0666
17,ATTCGAGA,0.0862
18,AAGGTATG,0.226
19,CTCCCGCA,-0.123
20,GACATCAA,0.104
21,GGTAGTAC,0.248
22,ACCCACCC,0.373
23,AGAAAGCA,-0.00472
24,TGAAAACA,0.202
25,AACACAAG,-0.00912

row,Sequence,PBM E-score
1,AACACAGC,0.11
2,CGGCTTGC,-0.0434
3,ATCTATAC,-0.0224
4,CCACTCCC,-0.151
5,CAGGCGGC,-0.228
6,CATATCGA,-0.118
7,GGTTGGGA,0.11
8,CTCAACAC,0.0925
9,ACACTTAT,-0.101
10,CACTTCAG,-0.152
11,ACCGTACT,0.141
12,AATCCTCT,-0.302
13,ACCGTTGA,0.0816
14,CTGACCCC,0.12
15,ATACAGGG,0.174
16,CTCTACTA,0.0286
17,CAGTCTCG,-0.268
18,ATACGCGA,0.108
19,AATACGAT,0.0187
20,CCGATGCA,-0.0314
21,CCGGATCA,-0.0518
22,GTTGGCGA,-0.0774
23,CCTGTGCC,-0.107
24,GATAGCGA,-0.099
25,ATACCGCA,0.0517

row,Sequence,PBM E-score
1,CTGGTCCA,-0.0205
2,AGAAGAAG,0.00119
3,CTCAGGCA,-0.158
4,CCAGCTAG,-0.187
5,GCCGCAAC,0.218
6,ATACAGAG,0.023
7,AGTACGTG,-0.117
8,ATCAACGC,-0.0956
9,GGTGCCCA,0.0667
10,GCTGACAA,0.118
11,AAAATCCC,-0.0263
12,CTTGCAAC,0.0364
13,AAGCCTGA,-0.233
14,GTACTAGA,0.169
15,CGCGGTCA,0.23
16,ACTTACAG,0.0195
17,ACTTAGTA,0.0752
18,ACATCGGG,-0.078
19,GAACCTAC,0.0424
20,CTAAGTCA,-0.245
21,GGTTGGCA,0.0593
22,CATTCGTC,-0.111
23,AATTCGCC,-0.052
24,ATAGCTGC,-0.13
25,GCGGGCAA,0.0256

row,Sequence,PBM E-score
1,CTACGTGA,-0.0697
2,CCCGAGAG,0.168
3,CCCAACTA,0.00333
4,CCCATCTA,-0.0762
5,ACACCATA,0.219
6,ACTACGTA,-0.194
7,ATGATCCA,-0.0668
8,AGCATATC,-0.21
9,AATATTGT,0.287
10,GCGTTTGA,-0.0767
11,AATCTAAC,0.127
12,TAACCATA,0.44
13,AAAGAGGG,-0.104
14,CTGCCATA,-0.0723
15,AGCGCTAC,-0.122
16,GGCGAAAC,-0.0392
17,TGGATCCA,-0.00387
18,GTAGATGA,0.0898
19,ATTTGCGC,-0.0712
20,GATCCCAC,-0.0425
21,AGTGTTAT,0.125
22,AATCTTAG,-0.0102
23,GAGCAAAA,-0.128
24,ATCCAGGA,-0.0629
25,CACTACGC,-0.163

row,Sequence,PBM E-score
1,AACCATAC,0.159
2,TGACTACA,-0.068
3,CAACTGCG,-0.2
4,CTCCCTCC,-0.076
5,GAACAGCC,-0.137
6,ACATTCGG,-0.116
7,ACTAGTAA,0.161
8,AGAGTCAC,0.0197
9,CACTTGGA,-0.00068
10,CAGGTAGG,-0.0242
11,AGATACTA,-0.0794
12,AGGCCCTA,-0.0142
13,AGCCATCA,-0.137
14,GACTGAAA,0.0185
15,CGAAAACC,0.274
16,AATATTAT,0.0902
17,CGTTAACC,0.294
18,TCTAGGAA,-0.0336
19,GAGAAAGA,0.111
20,CCGATTTA,0.0418
21,ACCTAAGA,0.193
22,ATACCATG,0.0791
23,ACAAATCT,0.112
24,AGGAATAA,0.118
25,GGCTCGCA,-0.134

row,Sequence,PBM E-score
1,ACCCTGCC,0.186
2,ATTGGAAG,-0.0234
3,GCACAATA,-0.0647
4,ATGTATCC,-0.222
5,GATGCGAA,-0.149
6,CTCCTGCC,-0.312
7,GGCAATAA,-0.0396
8,AGAAACTG,-0.0216
9,CGACTTAA,-0.0837
10,CGAACTGC,-0.137
11,TGTCGAAA,-0.0156
12,AGTAAGGG,0.241
13,ATCTAGTG,-0.0857
14,CAATAGTG,0.00976
15,GGTGGAGA,-0.266
16,CAGATTGA,-0.0519
17,GGAAAGCA,-0.139
18,CTGGTGAC,-0.0173
19,AGGGGTGG,0.131
20,GATCAAGC,-0.0745
21,CAAGACTG,-0.129
22,CATCCGTA,0.0269
23,CCGCCAAG,-0.0908
24,GAGCACCA,0.00973
25,CACACGTG,0.0023

row,Sequence,PBM E-score
1,ACAAGACG,-0.133
2,CGCCTGGC,-0.305
3,AGTTTAAT,0.113
4,TCTTGGCA,-0.0566
5,AATCTAAG,0.0186
6,AAACCGCT,-0.0552
7,ACATGGTC,-0.0378
8,CCTGAGCC,-0.123
9,CCAACATC,-0.104
10,AAACGAGC,-0.11
11,ACACGTCT,-0.137
12,CTTGTACA,-0.0389
13,ATTCACCA,0.0528
14,CTACACCA,0.144
15,CTCGGCAC,-0.0659
16,ACGTGTGG,-0.148
17,CGTTCTGC,-0.111
18,AAGGCTAC,0.00201
19,ACCAAGCC,-0.026
20,AGTTGTGG,0.184
21,CCCAGAAA,0.167
22,GGGCAAAC,-0.0731
